The structures appear in SMILES notation. Hit rate of the full screen: of about 52,000 compounds, about 4,300 (8.3%) were called active. Cut-off read from the data, not from the text of the source: active = survival mostly below about 52% (no sharp cut-off); inactive = mostly above about 56%. This is one part of the list.

The test has as its system DeltatarO mutant. The test can be described thus: S. aureus survival, RN4220 and DeltatarO strains – OD600, teichoic acid synthesis inhibitors, primary screen (AID 463173). The settings on record: S. aureus RN4220 wild type/DeltatarO growth, OD600, 18 h, hits give low values, screened at 18.75 µg/mL (by protocol).
Take `Cc1cc(NC(=O)CSc2nnc(-c3cccs3)n2C)no1`: the survival is inactive: 83%.

As for `CCCN(CCC)CCNC(=O)Cn1cc2c(n1)-c1c(oc(C(=O)N3CCCC3)c1C)CC2`, the survival is inactive: 111%.

On to `CC(=O)N(CCc1ccccc1)Cc1nc2ccccc2c(=O)[nH]1`, for which the survival is inactive: 89%.

As for `N=c1nc(SCCC(=O)O)ss1`, the survival is inactive: 79%.

Consider `O=C(CS(=O)(=O)c1cccc2nsnc12)Nc1ccc(F)cc1`, for which the survival was inactive: 97%.

For `Cc1nc(NC2CCN(Cc3nnnn3Cc3ccc4c(c3)OCO4)CC2)[nH]c(=O)c1C`, the survival is inactive: 94%.

Regarding `Cc1ccc(NCC(=O)N/N=C/c2ccncc2)cc1`, the survival was inactive: 108%.

As for `COC(=O)c1ccc2c(c1)N(Cc1cc(C)ccc1C)C(=O)c1ccccc1S2`, the survival was inactive: 67%.

Consider `CCN1CCc2nc3sc(C(=O)c4ccccc4)c(N)c3cc2C1`, for which the survival is inactive: 47%.

For `CCN(c1ccccc1)S(=O)(=O)c1nnc(NC(=O)C(C)(C)C)s1`, the survival was inactive: 49%.

Take `CC(CNC(=O)c1ccc(CSc2nc3ccncc3n2Cc2ccc(F)cc2)cc1)c1ccccc1` (stereo unspecified): the survival was inactive: 77%.

As for `Cc1ccc(-c2nc(-c3cc4cccc(OCc5ccc(F)cc5)c4oc3=O)no2)cc1`, the survival is inactive: 69%.

Consider `Cc1ccc(CNC(=O)C2CCCCN2S(=O)(=O)c2ccc(F)cc2)cc1` (stereo unspecified), for which the survival is inactive: 84%.

With `Cc1ccc(NC(=O)CSc2nc(-c3ccc(C(C)(C)C)cc3)nc3cc(=O)[nH]n23)cc1C`, the survival was inactive: 84%.

On to `CSc1ncc(C(=O)Nc2cccc(C)c2C)c(-c2ccccc2)n1`, for which the survival is inactive: 83%.

In the case of `COc1ccc(CNC(=O)C2CCN(S(=O)(=O)c3ccc(F)cc3)CC2)cc1`, the survival is inactive: 71%.

For the compound `CC(CO)(CO)N=Cc1c(O)[nH]c(=O)[nH]c1=O`, the survival is inactive: 97%.

For the compound `COc1ccc(OCCn2c(C(C)Oc3ccccc3)nc3ccccc32)cc1` (stereo unspecified), the survival was active: 48%.

As to `CC1C(=O)Nc2ccc(S(=O)(=O)NCc3ccc(N(C)C)cc3)cc2NC1=O` (stereo unspecified), the survival is inactive: 74%.

`Cc1ccc(Cl)cc1-n1ncc2c(NCc3ccc(F)cc3)ncnc21`: the survival is inactive: 77%.

For the compound `C=CCn1c(SCC(=O)c2cccs2)nc2sc(C)cc2c1=O`, the survival is inactive: 93%.

`COc1ccc(Cn2c(CCC(=O)Nc3ccc(C)c(C)c3)nc3cccnc32)cc1`: the survival was inactive: 67%.

`CCCN(CCC)C(=O)CN1C(=O)CSc2ccc(S(=O)(=O)N3CCC(C)CC3)cc21`: the survival was inactive: 78%.

As for `CC(=O)N1CCc2cc(S(=O)(=O)NC(CC(C)C)C(=O)NCCc3ccc(C)cc3)ccc21` (stereo unspecified), the survival is inactive: 80%.

For `COc1cccc(C(=O)c2cn(CC(=O)Nc3cccc(C(F)(F)F)c3)c3nc(C)ccc3c2=O)c1`, the survival was inactive: 69%.

Turning to `CCN(CC)S(=O)(=O)c1ccc2c(c1)nc(CN(C)C(=O)Nc1cccc(Cl)c1)n2C`, the survival is inactive: 87%.

Turning to `CN(Cc1ccccc1)C(=O)c1cc2nc(-c3ccco3)cc(C(F)(F)F)n2n1`, the survival is inactive: 101%.

For `Cc1cc(NC(=O)CC(C)C)no1`, the survival is inactive: 69%.

On to `Cc1nc2nc(NCc3cccc(Cl)c3)[nH]n2c(=O)c1Cc1ccccc1`, for which the survival is inactive: 78%.

Regarding `CCOc1ccc2nc(N3CCCC(C(=O)NCCCOC)C3)sc2c1` (stereo unspecified), the survival was inactive: 79%.

Take `COC(=O)c1ccc(Cn2c(SCc3ccccc3F)nc3ccncc32)cc1`: the survival is active: 42%.

Turning to `CCOc1ccc(CCNC(=O)Cn2c(=O)c3cccn3c3ccc(F)cc32)cc1OCC`, the survival is inactive: 74%.

Regarding `CCOc1cc(CNc2ccc(C(=O)O)cc2)ccc1OCc1ccccc1`, the survival is active: 47%.

As for `Cc1ccc(C)[n+](C)c1`, the survival is inactive: 108%.

For the compound `O=C(O)c1c(-c2ccccc2)oc2ccc(OCc3ccc(Cl)c(Cl)c3)cc12`, the survival was active: -1%.

Take `CN1C(=O)N(C)C2OC3OC4C(OC3OC21)N(C)C(=O)N4C` (stereo unspecified): the survival is inactive: 105%.

As to `COc1ccc(-c2cccc(NS(=O)(=O)c3ccc(C)s3)c2)nn1`, the survival was inactive: 86%.

Consider `COCCCNC(=O)c1oc2c(c1C)-c1nn(Cc3ccc(Cl)cc3)cc1CC2`, for which the survival is inactive: 75%.

Regarding `Cn1cc(CCC(=O)NCc2ccc(Cl)cc2)c2ccccc21`, the survival is inactive: 110%.

Regarding `CCc1ccccc1NC(=O)N1CCC(CN2CCc3ccccc3C2)CC1`, the survival was inactive: 76%.

As to `Cc1ccc(C(=O)CCC(=O)Nc2ccc(C)cc2C)cc1`, the survival was inactive: 115%.

With `CC1CCN(S(=O)(=O)c2ccc3c(ccc(=O)n3CC(=O)Nc3ccc(C(C)C)cc3)c2)CC1`, the survival is active: 0%.

For the compound `Nc1nc(SCC(=O)Nc2cccc(C(F)(F)F)c2)n[nH]1`, the survival was inactive: 63%.

Take `CCOC(=O)c1c(-c2ccc(C)cc2)csc1NC(=O)c1cc(-c2ccc(Cl)cc2)on1`: the survival was inactive: 90%.

As for `COc1cccc(-n2c(=O)c3c(C)c(C)sc3n(CC(=O)Nc3ccccc3OC)c2=O)c1`, the survival is inactive: 83%.

For the compound `CCc1ccc(CNCc2c(C(=O)O)c(C)n(Cc3c(F)cccc3Cl)c2C)cc1`, the survival was inactive: 82%.

With `Cc1ccccc1CC1C(=O)Nc2ccc(Br)cc21` (stereo unspecified), the survival was inactive: 80%.

As to `CCOc1cccc(C(=O)N(Cc2ccc(N(C)C)cc2)CC2CCCO2)c1` (stereo unspecified), the survival was inactive: 65%.

Regarding `CCCCC(CC)CNC(=O)CN(C)S(=O)(=O)c1ccc2c(c1)c(=O)n(C)c(=O)n2C` (stereo unspecified), the survival is inactive: 73%.

Turning to `COc1ccc(NC(=O)CSC2=Nc3ccccc3C3=NC(CCC(=O)NCc4ccc(F)cc4)C(=O)N23)cc1Cl` (stereo unspecified), the survival was inactive: 76%.

`CCOC(=O)c1ccc(NC(=O)CC2Sc3ccc(C(F)(F)F)cc3NC2=O)cc1` (stereo unspecified): the survival was inactive: 78%.

Regarding `N=C(N)SCC(=O)Nc1ccccc1`, the survival was inactive: 86%.

In the case of `CCCSc1nsc(SCCC)c1C(N)=O`, the survival was inactive: 65%.

Regarding `COc1cccc(N2CCN(C(=O)C3CCN(S(=O)(=O)c4cccc5nonc45)CC3)CC2)c1`, the survival is inactive: 90%.

Regarding `Cc1nn(C)c2c1c(-c1ccccc1)cc(=O)n2Cc1ccccc1Cl`, the survival is inactive: 88%.

As to `Cc1cc(NC(=O)CCNS(=O)(=O)c2ccc3c(c2)CCCC(=O)N3)ccc1Br`, the survival is inactive: 76%.

In the case of `Cc1ccc(CN(C(=O)COc2ccc(Cl)cc2)c2ccccn2)o1`, the survival was inactive: 64%.

Turning to `COc1ccc(-c2nc(CCNC(=O)c3cccs3)cs2)cc1`, the survival was inactive: 109%.

With `CCOc1ccc(CNC(=O)CCCn2nc(C)c3sc4ccccc4c3c2=O)cc1`, the survival is inactive: 80%.

Regarding `CCC(C)Nc1sc(S(=O)(=O)CC)nc1S(=O)(=O)c1ccc(C)cc1` (stereo unspecified), the survival was inactive: 77%.

In the case of `COC(=O)c1cc(S(=O)(=O)NCC2CCN(Cc3ccc(C)cc3)CC2)cn1C`, the survival was inactive: 73%.

Turning to `CCCOc1ccc(-c2nn(-c3ccccc3)cc2C2NC(=O)NC(C)=C2C(=O)OC)cc1` (stereo unspecified), the survival is inactive: 61%.

For the compound `CCc1ccc(C(=O)c2cn(CC(=O)Nc3cc(OC)ccc3OC)c3ccc(C)cc3c2=O)cc1`, the survival is inactive: 71%.

`Cc1cccc(NS(=O)(=O)c2ccc3c(c2)[C@H]2C=CC[C@H]2[C@@H](c2ccc(F)cc2)N3)c1`: the survival was active: 39%.

For the compound `COc1cc(C(=O)OC(C)CN2C(C)CCCC2C)cc(OC)c1OC` (stereo unspecified), the survival was inactive: 77%.

Consider `Cc1ccc(C)c(NC(=O)Cn2c(=O)nc(-c3ccccc3)c3ccccc32)c1`, for which the survival was inactive: 71%.

Regarding `CCOc1ccccc1NC(=O)c1c(NCc2ccc(C)o2)sc2c1CCC(C)C2` (stereo unspecified), the survival is inactive: 100%.

For the compound `COc1ccc(CCNC(=O)Cn2nc(C)n3c(cc4cc(F)ccc43)c2=O)cc1OC`, the survival is inactive: 118%.

For the compound `CCCCN(C)C(=O)Cn1c(C2CC(=O)N(c3ccc(C)cc3)C2)nc2ccccc21` (stereo unspecified), the survival was inactive: 63%.

For the compound `Cc1ccc(C)c(N2CCN(C(=O)c3cc4c(=O)n(Cc5ccco5)ccc4nc3C)CC2)c1`, the survival is inactive: 83%.

Regarding `COc1cccc(C(=O)Nc2cccc(NC(=O)c3ccc(Cl)cc3Cl)c2)c1`, the survival is inactive: 71%.

For the compound `CC(=O)N(Cc1cccnc1)Cc1cc2cc3c(cc2[nH]c1=O)OCCO3`, the survival is inactive: 84%.

For `CC(=O)N1c2ccccc2C(=O)C1N1CCN(c2ccc(F)cc2)CC1` (stereo unspecified), the survival was inactive: 94%.

As for `COc1ccc(NC(=O)c2ccc(CNS(=O)(=O)c3ccc4c(c3)C(C)(C)C(=O)N4C)cc2)cc1`, the survival is inactive: 90%.

As for `CCCCN(C)C(=O)C1CCC(CNS(=O)(=O)c2ccc3c(c2)CC(C)N3C(C)=O)CC1` (stereo unspecified), the survival is inactive: 62%.

For the compound `CCN(CC)C(=O)Cn1c(SCCOc2ccc(Cl)cc2)nc2ccccc21`, the survival is active: 43%.

As to `CCCc1nn2c(=O)cc(COc3ccc(/C=C(\C#N)C(=O)Nc4ccc(F)cc4)cc3)nc2s1`, the survival was inactive: 65%.

As to `O=C(CCS(=O)(=O)c1cc2c(cc1Cl)NC(=O)CO2)NCCc1ccc(Cl)cc1`, the survival was inactive: 106%.

Regarding `Cc1ccc(-n2nnnc2C2CCN(S(=O)(=O)c3ccc(OC(F)(F)F)cc3)CC2)cc1`, the survival was inactive: 110%.

Turning to `CC1(C)CC(=O)c2cnc(N)nc2C1`, the survival is inactive: 93%.

Turning to `Nc1nonc1/C(=N/O)N1CCCC1`, the survival is inactive: 113%.

On to `CCOc1ccccc1CNC(=O)CCc1cn(Cc2ccc(Cl)cc2)c2ccccc12`, for which the survival is inactive: 55%.

On to `Cc1ccc(OCC(O)CN2C(=O)NC(C)(C)C2=O)c(Cl)c1` (stereo unspecified), for which the survival is inactive: 60%.

In the case of `CCN(C(=O)Cn1c(=O)oc2cc(S(=O)(=O)N3CCCC3)ccc21)c1cccc(C)c1`, the survival was inactive: 83%.

For `COc1cccc(-n2c(=O)c3c(C)c(C(=O)N(C)C)sc3n(CC(=O)Nc3ccc(C)cc3Cl)c2=O)c1`, the survival is inactive: 74%.

On to `O=C(Nc1ccc2c(c1)N(C1CCCC1)C(=O)c1ccccc1S2)c1cccc(F)c1`, for which the survival is inactive: 54%.

Take `COc1cccc(CNC(=O)C2CCCN(c3ncnc4onc(-c5ccc(F)cc5)c34)C2)c1` (stereo unspecified): the survival was inactive: 80%.

For the compound `CC(C)OCCCNC(=O)CN1C(=O)CSc2ccc(S(=O)(=O)N3CCCCC3)cc21`, the survival is inactive: 99%.

As for `O=c1c2cc3sccc3n2cc(-c2ccccc2)n1-n1cccc1`, the survival is inactive: 105%.

`O=C1CC(c2nc(-c3cccc(Cl)c3)no2)CN1c1ccc2c(c1)OCCO2` (stereo unspecified): the survival was inactive: 144%.

As to `CC(=O)n1c2ccccc2c2cc(Cl)ccc21`, the survival is inactive: 95%.
